Experimental data published in paper PMC12136788.
This is one part of the list.

B1: chr15:99827826:99827827:+_ENSMUSG00000023025_ENSMUST00000100206|mus_mus|motif|central (ssRNA)
RNA: GGGAGUUCUACAGUCCGACGAUCAUUCAUAGCAGCAGCAUUUGUUUUGUAAGAUCCUGGUGAACUAAAGCCAUUCACAAAACGGCCAUUGGGAAAGGGAGCCAGUGGUGUUUCAAAGUAAGGUGCAGGACUUGGAGACCAAGACAACAGAGGAUUGAGCAUCA
B2: 126977228_126977348_13475_CDS_ENSMUSG00000040249_ENSMUST00000049149|mouse|control|control (ssRNA)
RNA: GGGAGUUCUACAGUCCGACGAUCCUGCUUAUUGACCACACAGGCGCCUUGGAGACAGCGACUACACUUGUUCACCUCACACCUUGGUCCCUCAAAGUAGACGGUGCAGCGACAUUGUCGGGAGCCAUCAGCAGCCAUCUGACACAACAGAGGAUUGAGCAUCA
B3: chr6:38652254:38652255:-_ENSG00000124767_ENST00000373365|hu_hu|hu_hu_hu_mus_False|1_58 (ssRNA)
RNA: GGGAGUUCUACAGUCCGACGAUCCGAGAACUUCAUAGCAGGGAAGUCAAGCUUCUGCAGGAGGGUCAGUCCAAGAACUCUAGUAUAAAAAUCCAGGGACUUCUUAGGAUCCUUAAUUCUUAGCAUCGUUUGCUGCAAUAGAAACAACAGAGGAUUGAGCAUCA
B4: chr9:59188957:59188958:-_ENSMUSG00000025235_ENSMUST00000026265|mus_hu|motif|central (ssRNA)
RNA: GGGAGUUCUACAGUCCGACGAUCGGCCACCUGCUUGAGGUUAUCAGCACUCUGAGGACUAAGAACUGCACAUGUCUGGAAGAGUUCGGGGGAUUCUUGGAUAUUUCCUUCUAGGCGAAAUAUCAAUGCUUGGACAUAGAUAGCCAACAGAGGAUUGAGCAUCA
B5: chr8:98289279:98289280:-_ENSG00000180543_ENST00000322128|hu_hu|FALSE|FALSE (ssRNA)
RNA: GGGAGUUCUACAGUCCGACGAUCUUCCAAGCUGUUUAAGUAGCUCAGUACCUCUUUCUCUUGGCUAUUCAGAAAGGAUGCUAGCUGGGGAUGGUUCUGAAAUGCUUGCCCCCAGAAGCCCGGGAUAUUUUGGAUGAGGUGGUUCAACAGAGGAUUGAGCAUCA
B6: chr13:46067487:46067488:+_ENSG00000136152_ENST00000349995|hu_hu|FALSE|FALSE (ssRNA)
RNA: GGGAGUUCUACAGUCCGACGAUCGAUCAAUGGCCUGAAGACAUCAUACAAUGACACACACAGUUUCUCCAAAAGCUCAUCUAAUUUUGAUGUUGGUUUUGUGAAAAAUUCAUUGUAAAGUUGGUGUUCAUCCUGGCAGACAUGCAACAGAGGAUUGAGCAUCA
B7: chr11:4127340:4127341:+_ENSG00000167325_ENST00000300738|hu_hu|motif|central (ssRNA)
RNA: GGGAGUUCUACAGUCCGACGAUCAGCAUAGUCAGGGUGCUUAGUAGUCAAGGUUGCAGCUGUUUCAGCAGCCAAAGUAUCGGGUUCCACUGUGGUGACCCCACUGUACAAGCCUUGGAUUACUUUCAUGGUGAUCUGAGCAGGCAACAGAGGAUUGAGCAUCA
B8: chr4:101300647:101300648:+_ENSMUSG00000028528_ENSMUST00000094953|mus_hu|FALSE|FALSE (ssRNA)
RNA: GGGAGUUCUACAGUCCGACGAUCAGUACCAUGCGAGGAUCCGGUUGGGCUGGUGGCAGCUGACUUGCUUCCCAUUCCAAAGCCUCCUGGUUUAGCAUGCCAGUCCCAACCUCCAGAAACAUCUGGCUGAAUGUUCACAGCAGGCAACAGAGGAUUGAGCAUCA
B9: chr14:62194323:62194324:+_ENSG00000100644_ENST00000337138|hu_hu|motif|central (ssRNA)
RNA: GGGAGUUCUACAGUCCGACGAUCUCUUUCAUCACAAUAAGAAAAUUUCAUAUCCAGGCUGUGUCGACUGAGGAAAGUCUUGCGGUCGGAAGGAAUUUCAAUAUUUGAUGGGUGAGGAAUGGGUUCACAAAUCAGCACCAAGCACAACAGAGGAUUGAGCAUCA
B10: chr5:72801247:72801248:+_ENSG00000145741_ENST00000335895|hu_mus|FALSE|FALSE (ssRNA)
RNA: GGGAGUUCUACAGUCCGACGAUCUUUUAUUAACCCUUUCCAAACUUUAUUCCCAGGCUUCUUCAGCUUUAUUUGCCGCAAAGAAUGAAUUAGGUAUAGCGAAAACUGAAAAGAGCUGCAGUGUCCGGGGGCUUGGGCUUAAAACAACAGAGGAUUGAGCAUCA
B11: chr16:94651144:94651145:+_ENSMUSG00000040785_ENSMUST00000117648|mus_hu|mus_mus_mus_hu_True|8_108 (ssRNA)
RNA: GGGAGUUCUACAGUCCGACGAUCAUUCUCUUGGAUCAAGUGGCGAAUAACAUAGUCCACUGCUUCAUUUAGAAAAUUUCUGCUAGAAAAACAGGUUGUAUAGUCUUCUGUGCUCAAAACUUUCCAAGAGAGCAGCUCUUUGAGCAACAGAGGAUUGAGCAUCA
B12: chr7:141441981:141441982:+_ENSG00000106028_ENST00000265304|hu_hu|FALSE|FALSE (ssRNA)
RNA: GGGAGUUCUACAGUCCGACGAUCCUCAUGUCUUACAAACUGACGAAGUACCUGUAAUACAGGUCUUCGAAACAUGGCUUCUAUUUUCUUUUCUUACAGUCUAAUCUUUAGGCUUUUCCUGACGAUCUAACCCGAGCAGCCCAGCAACAGAGGAUUGAGCAUCA
B13: chr1:23645023:23645024:-_ENSG00000125944_ENST00000302271|hu_hu|motif|central (ssRNA)
RNA: GGGAGUUCUACAGUCCGACGAUCCUUAGCCAUGACUUCUGGAUCUGGUUCUUCCACAGGGUCAGCCCAUUCAACUGUAACGGCAUUUCCCCACACUUUUACUUUUCCACUCAUCAGCCGGCGUCUGGCUUGUGCUGCUGACUUCAACAGAGGAUUGAGCAUCA
B14: chr2:78712580:78712581:+_ENSMUSG00000027011_ENSMUST00000028398|mus_hu|FALSE|FALSE (ssRNA)
RNA: GGGAGUUCUACAGUCCGACGAUCAUUAGGAGGAGGAUCAAGGGUUAUUUCAGCUAGCUCCUUCUGAAUUCUUUUAGCACUAGUGGAUAACUUAGCAGUGGUUUUGCUAGAGAGUUUGGUGUUUUUCUUCUGCUGGGUGGCAGACAACAGAGGAUUGAGCAUCA
B15: chr1:68170538:68170539:-_ENSG00000172380_ENST00000370982|hu_mus|motif|central (ssRNA)
RNA: GGGAGUUCUACAGUCCGACGAUCCUUUGCAACGUUCUUUCAUUACCUUUUUUUUUGUACAAAAAUUUCACGGAAAUUUACCGGCACAGAGUCAGGAUAAUGAUGUAACUCUGAAGGGAGGGAGCUACCGCAGGAAGUUUCAGGCAACAGAGGAUUGAGCAUCA
B16: chr5:128440902:128440903:+_ENSG00000066583_ENST00000173527|hu_mus|hu_hu_hu_mus_True|68_88 (ssRNA)
RNA: GGGAGUUCUACAGUCCGACGAUCUUGAACGGUGCUGCCAAGUCCUUUAGGGUAUUGUUCCGUUAUGAUAACAGGAAUCCCUAAGAUCCGAGCUCCUUGCAACAGUCUCUGUCCCACACUAAUGAUGUCCCCAAAGUAUUUGAUCAACAGAGGAUUGAGCAUCA
B17: chr11:87044885:87044886:-_ENSMUSG00000046442_ENSMUST00000055438|mus_hu|FALSE|FALSE (ssRNA)
RNA: GGGAGUUCUACAGUCCGACGAUCAGGACCAAACAUCUCAACUGGUAGCAAAAACUGGGCACUGUGAGGUUUGCUUGCUUCUAUUUGUGUGAGAUCUAGGUAGCCUGGGUCUUCCAGCACGUUGAUUUGGGACCCUGGGCUCAGCAACAGAGGAUUGAGCAUCA
B18: 173316423_173316543_141_3pUTR_ENSG00000113742_ENST00000334035|human|control|control (ssRNA)
RNA: GGGAGUUCUACAGUCCGACGAUCACUCUUAAAAAAAUCUCUUAAAACAUUGACUUGGAUCCAAUUGGGCUUAUUUUUAGGAGGGAAUAAAAAUGAAGAGGGUAAAAAUCAAGUCUUUGGUUAGUAAAAUAGGCGCUUUCUUUUCAACAGAGGAUUGAGCAUCA
B19: 234758418_234761243_333_CDS_ENSG00000123485_ENST00000411486|human|control|control (ssRNA)
RNA: GGGAGUUCUACAGUCCGACGAUCGACUGUGCGGUGCGAGGGAAGCUCAGGACCCCAGGCUGCAGCUUGCACGGAGCCAUCUGUCCUGUCCGCGGGCUUCAUGGAGGAGUCCUGGAUCUCUCCUUCGUUUCUUUCCUUUAUUAGCAACAGAGGAUUGAGCAUCA
B20: chr7:151048522:151048523:+_ENSG00000013374_ENST00000566856|hu_mus|hu_hu_hu_mus_True|38_58 (ssRNA)
RNA: GGGAGUUCUACAGUCCGACGAUCCUGUUUCUUAUUUAUUACGAUCUUGAUGUAAUUUUCUUGAAAUCCGAAAGUUUCAGCUAUUUUACACCUCAGGUCUCUGCCAGUGACAUGCAAGCGGGUCUCCAACAAGCUUUUCUUAUCCAACAGAGGAUUGAGCAUCA
B21: chr13:31722556:31722557:-_ENSG00000120694_ENST00000320027|perfect_dup|FALSE|FALSE (ssRNA)
RNA: GGGAGUUCUACAGUCCGACGAUCCUCGUGCACACCUUCCGUUUCUUCCGAGUCGUGGUUCCAGACCAGAGAUAUUGGAAAAGGAACUGCAUCGGUGACAGAGAACUCUCUAACUUUAAAUGCCGGAGAAAGAAUUGCACACUGCAACAGAGGAUUGAGCAUCA
B22: chr7:54823571:54823572:-_ENSG00000132432_ENST00000352861|hu_mus|hu_hu_hu_mus_False|48_108 (ssRNA)
RNA: GGGAGUUCUACAGUCCGACGAUCUCCCAUUAUAGCAAAUCCUAUAGCUGUAGCCAUGGCAAUCUUCUGGAAUUCUUUUCUGUCGGGUUUAGUGCAUCUUUUAACCAGCCGAAUUGAGUCCUUUACAAACUGCCGGCUGGGCUCCAACAGAGGAUUGAGCAUCA

target: T1, UNK ZnF1-3 (human, UniProt Q9C0B0 31-174); assay: nsRBNS (natural sequence RNA bind-n-seq); RBNS binding buffer (assumed for nsRBNS): 25 mM Tris pH 7.5, 150 mM KCl, 3 mM MgCl2, 0.01% Triton X-100, 500 ug/ml BSA, 20 U/ml SUPERase-In, 4 C; UNK is unkempt and MSI1 is Musashi-1; names of the RNAs are library labels; protein concentration not given here; high values mean tight binding
T1 sequence: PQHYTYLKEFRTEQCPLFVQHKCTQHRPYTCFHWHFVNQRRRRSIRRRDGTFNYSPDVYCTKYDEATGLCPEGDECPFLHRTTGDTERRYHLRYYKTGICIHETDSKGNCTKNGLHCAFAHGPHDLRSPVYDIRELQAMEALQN

Binder	binding signal
B1	1.56 enrichment R
B2	0.928 enrichment R
B3	1.14 enrichment R
B4	1.62 enrichment R
B5	1.12 enrichment R
B6	1.35 enrichment R
B7	1.19 enrichment R
B8	1.24 enrichment R
B9	1.23 enrichment R
B10	1.31 enrichment R
B11	1.04 enrichment R
B12	0.906 enrichment R
B13	0.534 enrichment R
B14	0.984 enrichment R
B15	1.28 enrichment R
B16	0.838 enrichment R
B17	1.01 enrichment R
B18	2.19 enrichment R
B19	0.379 enrichment R
B20	0.649 enrichment R
B21	1.13 enrichment R
B22	0.714 enrichment R
